Data: the supplement of paper PMC11417369
± gives the standard deviation of the averaged measurements. Some of the results follow.

Tested on: PfAP2-EXP AP2 domain (GST-tagged)
Test: gcPBM binding intensity (ln(normalized median fluorescence intensity)); higher = stronger DNA binding
How it was run: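 DNA-binding domains from P. falciparum, fused to GST and produced in E. coli, were put on an Agilent 4 × 180k double-stranded probe array for 1 h in 1× PBS holding 1% milk, 0.2 mg/ml BSA, 0.5% salmon testes DNA and 0.03% Triton X-100. Probes were primer-extended, 36 bp long and drawn from intergenic genomic regions, with negative controls included. After Alexa488 anti-GST antibody detection and a 488 nm scan, binding intensity was set as the highest Masliner-normalised natural-log median intensity across replicate spots of either probe orientation.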

| Sequence | gcPBM binding intensity (ln) |
| --- | --- |
| AAATTATATTATTGAACACACGTTTGGTAATGTTTT [CACACA_site5469] | 8.24 ± 0.43 |
| TCATTCATAAAAATAACACACAAAAAAAAAAAAAAA [CACACA_site1800] | 8.15 ± 0.53 |
| AAAAGATGCGCATACACACAGATGAATAACAAAAAA [CACACA_site6865] | 8.88 ± 0.57 |
| GCACATTTTTTTATCACACATATAATTACAATATAA [CACACA_site5585] | 8.78 ± 0.32 |
| TTTCGGTTTTTTTTTATTTTTTTTTTTTTATTATTT [CACACA_negctrl_site335] | 8.41 ± 0.62 |
| TACGTATGCCTGTGATGTACATATATATATACATAC [XGTACX_site4728] | 9.05 ± 0.43 |
| ATATAGGTAAAAAGTATACACACGTTGACACATTCT [CACACA_site1199] | 8.71 ± 0.53 |
| ATAATATAATTTTGCAGTACCCAAAAAACAAAATAA [XGTACX_site4827] | 9.04 ± 0.72 |
| AATATGATATATATATGTACATATATATAATATAAT [XGTACX_site3072] | 8.52 ± 0.41 |
| AAAGTATAATAATACACACACTTTAAAAGTTAAATG [CACACA_site7550] | 8.62 ± 0.33 |
| ACATAAAATTATTATACATGCATATTTAATTTTTTC [TGCATGCA_site353] | 8.64 ± 0.22 |
| AAAAAAAAAAAACACACACACACACCCATATATAAA [CACACA_site1170] | 8.51 ± 0.59 |
| GAATTGTATTGGTACTGTACAATTAAATTAAAAAAA [XGTACX_site1891] | 8.48 ± 0.36 |
| TGTAGTCTGGAGAAGAGTACATAGTATCTGGTAGCT [XGTACX_site2029] | 8.65 ± 0.47 |
| TTTTTTGTTAAGTTGGTGCAAACAATAGTTATTGAC | 8.67 ± 0.11 |
| TATATCTACTACACACGTACACAAAATAAGATACCT [XGTACX_site7886] | 8.79 ± 0.52 |
| GGAGCACCCAGACACACACACACATATATATATATA [CACACA_site336] | 10.2 ± 0.26 |
| TATTATATTTTTATTTGTACGTAAAATTAAGTTATG [XGTACX_site2405] | 8.6 ± 0.3 |
| AAAAATATAAACAAACGTACGAAGTGATGATATATT [XGTACX_site2242] | 8.89 ± 0.59 |
| GTTAAAAGAAAAATATGTACATAAAAAAATTAGAAA [XGTACX_site578] | 8.88 ± 0.28 |
| TATATATATATATGATGTACACATTTTATTATTTGT [XGTACX_site1147] | 9.94 ± 0.31 |
| AAGATGGTAAAGAATTGTACGCGCATATATATATTT [XGTACX_site3904] | 9.69 ± 0.42 |
| TTTTCAATTAAAAAAAAATTATATTTTATTATTACA [CACACA_negctrl_site142] | 7.68 ± 0.23 |

| Sequence | gcPBM binding intensity (ln) |
| --- | --- |
| CTCTTGTTTCCATATAGTACGTAATAATATATACAA [XGTACX_site2428] | 8.88 ± 0.2 |
| AATTTGATAATATCATGTACATGAAAGAATTCATGA [XGTACX_site8463] | 8.36 ± 0.4 |
| AATAAAAAAATATGAAATTATGACATATAGCATTTG [TGCATGCA_negctrl_site160] | 8.26 ± 0.21 |
| TACATAAATTAAAACACACACACACCCAAAAAAAAA [CACACA_site2261] | 8.71 ± 0.41 |
| GTGTATATTATTTTATCACACATGTACATATGTTAA [CACACA_site5473] | 8.45 ± 0.54 |
| AAAAAATAAAAAGATACACACATATGTATAATATAC [CACACA_site1496] | 8.66 ± 0.44 |
| TACAACCTTTAGACAAGTACAAGAATTATATGTGGC [XGTACX_site4581] | 8.71 ± 0.4 |
| ATACAATTCTTACATTGTACTTTTTTTTTTTATCAC [XGTACX_site6327] | 8.47 ± 0.42 |
| TGTATATCACATGAGAGGTGGAGATGGGGATAAATA [CACACA_negctrl_site1148] | 8.82 ± 0.43 |
| TTAATATGAATTATTACATGCAACTAAATATATTTA [TGCATGCA_site490] | 8.74 ± 0.33 |
| TAATACAGATTAAAAGGTACACTTATTTGGTATTAT [XGTACX_site4966] | 8.46 ± 0.34 |
| ACAAAATATATAGACACACAAACACAAATATGTTTT [CACACA_site3016] | 8.21 ± 0.3 |
| TCTATACCTATTCTTACACACATATGTATAAATATA [CACACA_site6407] | 8.84 ± 0.45 |
| TTGACAACTCTTTTCATACACACAAAAAAAAAAAAA [CACACA_site2362] | 8.4 ± 0.51 |
| ACTAAAAAAATAAACACACAGATTTATATAATATAT [CACACA_site4884] | 8.38 ± 0.39 |
| TATTAATGATAAGAATATTTTATATGATACATGCAT [CACACA_negctrl_site923] | 8.68 ± 0.41 |
| TATCTTTATATATAGTGTACACATTAAACAAATCTC [XGTACX_site7381] | 8.78 ± 0.16 |
| TATAAATAAATATGTACACACATATATACCTTTCAT [CACACA_site7291] | 8.46 ± 0.34 |
| AATAATTAACAAAAAAAAAAAAAAAAAAAAAAAAAA [GTGCAC_negctrl_site255] | 7.96 ± 0.49 |
| TATGTATTATATATTTGTACTCATTCTAATTCCTTC [XGTACX_site7294] | 8.66 ± 0.38 |
| TATATTAATGTTCATAGTACGTATGATTAGGAAAAA [XGTACX_site616] | 8.65 ± 0.38 |
| ACATATATGTATAATACACACACTAATATATAATTG [CACACA_site1966] | 8.52 ± 0.46 |
| ATTTAAAAAAAAACGGAATTTTTTTTTTTTTTAAAG [XGTACX_negctrl_site91] | 8.06 ± 0.51 |

| Sequence | gcPBM binding intensity (ln) |
| --- | --- |
| ATATTCATATATTTACGTACATACATTTATATATTT [XGTACX_site7644] | 8.85 ± 0.37 |
| GGAAAGACAGTTCACAGTACCCAGGAAATCTGCGGA [XGTACX_site4933] | 8.61 ± 0.51 |
| TTTAGTTTTTATATAGCACACATATTGTGATTATGT [CACACA_site8316] | 8.55 ± 0.22 |
| AATTTATAAAAGAAGAGGACACATATAAATATAAAT [XGTACX_site59] | 8.86 ± 0.38 |
| GAAAATAACTAAAATTGTACAAAGAAACATATATTT [XGTACX_site6484] | 8.79 ± 0.56 |
| AGAAAAAAATAATCATCACACACGGAGAATGTCCAA [CACACA_site2314] | 8.47 ± 0.57 |
| TATTAAAGCACCCATGCACACACACTAAGGAAAAGA [CACACA_site7961] | 9.47 ± 0.18 |
| GATATTCATTATATATGTACATATATGTAATATATA [XGTACX_site2210] | 8.55 ± 0.24 |
| TATATATATCTGTATACACACATACAAATATGTAAA [CACACA_site5950] | 8.4 ± 0.29 |
| TAATAATATATAAAAAGTACATAACAAGATATGAAA [XGTACX_site4921] | 8.69 ± 0.33 |
| ATCATATGTATGGTGGTGCATTATGCATGAATTTTA [GTGCAC_site9798] | 9.12 ± 0.071 |
| ATATATTTTTTTTTTTCACACATTAGGATTCATATA [CACACA_site5758] | 8.46 ± 0.5 |
| TTTATCTAAATATGTGTGCACTCGTTAATTTTTTTT | 8.96 ± 0.057 |
| TATATAAACCCACCTACACACACAACGTAAATGCAT [CACACA_site8702] | 9.26 ± 0.69 |
| ATTATTATATTCAAATGTACTTAATAAACATTTTAA [XGTACX_site3023] | 8.2 ± 0.26 |
| TAAAGAATATTATAAACACACACTTTATAAAGAATT [CACACA_site114] | 8.5 ± 0.37 |
| TGTTGATTTATCCTGTGTACGGATATATATCTTTCA [XGTACX_site7826] | 8.63 ± 0.38 |
| TATATAAAGAAACACACACACACCTTATAATTATTA [CACACA_site4062] | 8.79 ± 0.35 |
| GTAATTATACATATTACACACTCTCTTGATCTTTTT [CACACA_site7756] | 8.66 ± 0.33 |
| AAAAAAAAAACACGCGCACACACACCCACCCACCCA [CACACA_site8689] | 9.41 ± 0.62 |
| ACTAATAAAGGTGTAATACACACTATAAAAAGGAAT [CACACA_site1124] | 8.88 ± 0.57 |
| ATATATAATATATATTGTACAGGTATGTCTATAAAT [XGTACX_site2243] | 8.86 ± 0.35 |
| TTTTTTCTTTATTATGGTACGTATAAAAAAATTATA [XGTACX_site3433] | 8.35 ± 0.3 |

| Sequence | gcPBM binding intensity (ln) |
| --- | --- |
| GAGAGGTATCAAAAATGTACACATATATATATGTAT [XGTACX_site5611] | 8.52 ± 0.38 |
| ATTATTCCATATTATTGTACTTTAATTTTTTAAACC [XGTACX_site2960] | 8.79 ± 0.42 |
| TTTTTATCAACAAATAATACCATAACTCATATTTAT [CACACA_negctrl_site740] | 8.22 ± 0.35 |
| TATAAAATTTTTAAAAGTACATATTTTACATAATAC [XGTACX_site2193] | 8.38 ± 0.26 |
| AGAAAACATATGTTTTGTACTTAAGAAAAAAAAAAA [XGTACX_site4231] | 8.59 ± 0.53 |
| TAACATATGGGACACACATGCAACTGTTATATGTCC [TGCATGCA_site959] | 8.76 ± 0.35 |
| AACAGGTCATAATTTACACACTATATATTTTATTAT [CACACA_site670] | 8.8 ± 0.43 |
| TATATCATATAAAACCGTACATACATACTTAATTGT [XGTACX_site6822] | 8.51 ± 0.49 |
| TGATTAATTTTTAAATGTACTTAAAAATATACTTAT [XGTACX_site2872] | 8.21 ± 0.33 |
| ATCTATATTCATAATACACACATTCTGTAGCATTAT [CACACA_site7058] | 8.64 ± 0.38 |
| AAAAATAAATAAATATGTACATATATACATATATAT [XGTACX_site5892] | 8.31 ± 0.32 |
| AAAAAAAAATTAAAATGTACACATAAAAAAAAAAAA [XGTACX_site794] | 8.64 ± 0.42 |
| TTTTATATGTTATATACACACATATAAATAAATATA [CACACA_site7418] | 8.33 ± 0.35 |
| AAATAAAAAAAAGCCTGTACATGTTCATAAATTTTT [XGTACX_site7925] | 8.43 ± 0.4 |
| ATATATATTTATAATCGTACGTACCTAACAATACAA [XGTACX_site4510] | 8.91 ± 0.33 |
| GAATATTAAATATTATCACACACATAATTATTTCCA [CACACA_site8730] | 8.49 ± 0.33 |
| TCCTTATTTCATATTTTTAAATAATACAAAAAAAAA [CACACA_negctrl_site773] | 8.06 ± 0.38 |
| CTTAAATTAATTTGGGTGCATATATTTGTACACATT [GTGCAC_site9948] | 8.99 ± 0.31 |
| TTCTATTTATATGTGGGTACTAATTTTTTTTCTTTT [XGTACX_site7104] | 8.6 ± 0.28 |
| TGAATAAAATATTATACACACATATGTATATAACAT [CACACA_site974] | 8.24 ± 0.35 |
